What all share (test): cell-based or functional assay
Test [1] has as its target high-affinity hIL-2 receptor (IL-2Rαβγ) on NK-92 cells (human) (UniProt P01589).
Test [2] deals with intermediate affinity hIL-2 receptor complex (IL-2Rβγ) (human) (UniProt P14784).
The target in test [3] is high-affinity hIL-2 receptor (IL-2Rαβγ) (human) (UniProt P01589).

These results are taken from patent US20240076343A1.

Chain of UniProt P14784 (P14784 27-551, chain 1 of 2): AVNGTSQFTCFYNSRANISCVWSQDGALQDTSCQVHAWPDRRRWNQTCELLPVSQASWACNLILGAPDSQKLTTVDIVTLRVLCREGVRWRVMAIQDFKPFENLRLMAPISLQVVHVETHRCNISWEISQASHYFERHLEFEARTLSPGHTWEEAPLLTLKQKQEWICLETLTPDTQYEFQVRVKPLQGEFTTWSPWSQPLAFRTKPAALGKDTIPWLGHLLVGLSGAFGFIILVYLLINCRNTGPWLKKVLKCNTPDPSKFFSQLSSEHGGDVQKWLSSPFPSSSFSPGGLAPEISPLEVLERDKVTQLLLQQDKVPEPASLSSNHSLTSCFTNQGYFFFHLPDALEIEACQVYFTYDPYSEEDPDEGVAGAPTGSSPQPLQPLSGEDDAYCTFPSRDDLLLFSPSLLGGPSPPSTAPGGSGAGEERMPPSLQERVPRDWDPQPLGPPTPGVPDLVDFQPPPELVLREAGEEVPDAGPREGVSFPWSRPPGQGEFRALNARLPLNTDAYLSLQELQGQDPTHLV
Chain of UniProt P14784 (chain, as listed by the source, chain 2 of 2): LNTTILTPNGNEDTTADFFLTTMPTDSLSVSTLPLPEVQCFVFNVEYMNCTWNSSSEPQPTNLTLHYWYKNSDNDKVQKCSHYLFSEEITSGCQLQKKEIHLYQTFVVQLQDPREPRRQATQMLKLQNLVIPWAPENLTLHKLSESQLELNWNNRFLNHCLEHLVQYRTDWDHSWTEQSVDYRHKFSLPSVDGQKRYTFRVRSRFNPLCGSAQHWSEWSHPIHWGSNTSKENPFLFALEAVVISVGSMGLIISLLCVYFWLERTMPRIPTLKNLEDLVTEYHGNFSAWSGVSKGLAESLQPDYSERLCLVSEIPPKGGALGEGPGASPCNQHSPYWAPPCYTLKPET

B1: 1H3-hIgG1-L6-hIL-2 (I92D) (protein)
heavy: EVQLVESGGGLVQPGRSLKLSCAVSGFTFSDYAMAWVRQAPKKGLEWVATISYDGSRTYYRDSVKGRFTISRDNAKITLYLQMDSLRSEDTATYYCARHGSGYFDYWGQGVMVTVSS[not shown - about 450 residues with a human IgG1 Fc and changes]
light: DTVLTQSPALAVSPGERVTISCRASESVRTGVHWYQQKPGQQPKLLIYGASNLESGVPARFSGSGSGTDFTLTIDPVEADDTATYFCQQSWNDPFTFGSGTKLEIKRTVAAPSVFIFPPSDEQLKSGTASVVCLLNNFYPREAKVQWKVDNALQSGNSQESVTEQDSKDSTYSLSSTLTLSKADYEKHKVYACEVTHQGLSSPVTKSFNRGEC
As for B1, in test [1], the Fold change from hIL-2 (NK-92) was found to be 3 fold.

B2: 1H3-hIgG1-L6-hIL-2 (D20A/Y45T) (protein)
heavy: EVQLVESGGGLVQPGRSLKLSCAVSGFTFSDYAMAWVRQAPKKGLEWVATISYDGSRTYYRDSVKGRFTISRDNAKITLYLQMDSLRSEDTATYYCARHGSGYFDYWGQGVMVTVSS[not shown - about 450 residues with a human IgG1 Fc and changes]
light: B1 light
Turning to B2, the Fold change from hIL-2 (TF1 + IL-2Rβ), pSTAT5 fixed conc. in test [2] was 3 fold. The molecule also yielded a Fold change from hIL-2 (NK-92), pSTAT5 fixed conc. in test [3] of 24 fold.

B3: 1H3-hIgG1-L6-hIL-2 (D20A/E61F) (protein)
heavy: EVQLVESGGGLVQPGRSLKLSCAVSGFTFSDYAMAWVRQAPKKGLEWVATISYDGSRTYYRDSVKGRFTISRDNAKITLYLQMDSLRSEDTATYYCARHGSGYFDYWGQGVMVTVSS[not shown - about 450 residues with a human IgG1 Fc and changes]
light: B1 light
For the molecule B3, the Fold change from hIL-2 (TF1 + IL-2Rβ), pSTAT5 fixed conc. in test [2] is 0 fold. For the same molecule, the Fold change from hIL-2 (NK-92), pSTAT5 fixed conc. in test [3] was 14 fold.

B4: 1H3-hIgG1-L6-hIL-2 (I92D/F42M) (protein)
heavy: EVQLVESGGGLVQPGRSLKLSCAVSGFTFSDYAMAWVRQAPKKGLEWVATISYDGSRTYYRDSVKGRFTISRDNAKITLYLQMDSLRSEDTATYYCARHGSGYFDYWGQGVMVTVSS[not shown - about 450 residues with a human IgG1 Fc and changes]
light: B1 light
Turning to B4, the Fold change from hIL-2 (TF1 + IL-2Rβ), pSTAT5 fixed conc. in test [2] was found to be 5 fold. The molecule also returned a Fold change from hIL-2 (NK-92), pSTAT5 fixed conc. in test [3] of 28 fold.

B5: 1H3-hIgG1-L6-hIL-2 (D20A/E61K) (protein)
heavy: EVQLVESGGGLVQPGRSLKLSCAVSGFTFSDYAMAWVRQAPKKGLEWVATISYDGSRTYYRDSVKGRFTISRDNAKITLYLQMDSLRSEDTATYYCARHGSGYFDYWGQGVMVTVSS[not shown - about 450 residues with a human IgG1 Fc and changes]
light: B1 light
For the molecule B5, the Fold change from hIL-2 (TF1 + IL-2Rβ), pSTAT5 fixed conc. in test [2] amounted to 2 fold. Moreover, the Fold change from hIL-2 (NK-92), pSTAT5 fixed conc. in test [3] worked out at 17 fold.

B6: 1H3-hIgG1-L6-hIL-2 (D20A/E61L) (protein)
heavy: EVQLVESGGGLVQPGRSLKLSCAVSGFTFSDYAMAWVRQAPKKGLEWVATISYDGSRTYYRDSVKGRFTISRDNAKITLYLQMDSLRSEDTATYYCARHGSGYFDYWGQGVMVTVSS[not shown - about 450 residues with a human IgG1 Fc and changes]
light: B1 light
Consider B6, for which the Fold change from hIL-2 (TF1 + IL-2Rβ), pSTAT5 fixed conc. in test [2] was found to be 1 fold. The Fold change from hIL-2 (NK-92), pSTAT5 fixed conc. in test [3] was determined as 16 fold.

B7: 1H3-hIgG1-L6-hIL-2 (D20A/E61V) (protein)
heavy: EVQLVESGGGLVQPGRSLKLSCAVSGFTFSDYAMAWVRQAPKKGLEWVATISYDGSRTYYRDSVKGRFTISRDNAKITLYLQMDSLRSEDTATYYCARHGSGYFDYWGQGVMVTVSS[not shown - about 450 residues with a human IgG1 Fc and changes]
light: B1 light
For the molecule B7, in test [2], the Fold change from hIL-2 (TF1 + IL-2Rβ), pSTAT5 fixed conc. came out at 3 fold. For the same molecule, the Fold change from hIL-2 (NK-92), pSTAT5 fixed conc. in test [3] is 17 fold.

B8: 1H3-hIgG1-L6-hIL-2 (D20A/E61I) (protein)
heavy: EVQLVESGGGLVQPGRSLKLSCAVSGFTFSDYAMAWVRQAPKKGLEWVATISYDGSRTYYRDSVKGRFTISRDNAKITLYLQMDSLRSEDTATYYCARHGSGYFDYWGQGVMVTVSS[not shown - about 450 residues with a human IgG1 Fc and changes]
light: B1 light
Take B8: in test [2], the Fold change from hIL-2 (TF1 + IL-2Rβ), pSTAT5 fixed conc. worked out at 1 fold. In test [3], the Fold change from hIL-2 (NK-92), pSTAT5 fixed conc. is 16 fold.

B9: 1H3-hIgG1-L6-hIL-2 (D20A/F42E) (protein)
heavy: EVQLVESGGGLVQPGRSLKLSCAVSGFTFSDYAMAWVRQAPKKGLEWVATISYDGSRTYYRDSVKGRFTISRDNAKITLYLQMDSLRSEDTATYYCARHGSGYFDYWGQGVMVTVSS[not shown - about 450 residues with a human IgG1 Fc and changes]
light: B1 light
For the molecule B9, the Fold change from hIL-2 (TF1 + IL-2Rβ), pSTAT5 fixed conc. in test [2] amounted to 1 fold. In test [3], the Fold change from hIL-2 (NK-92), pSTAT5 fixed conc. came out at 16 fold.

B10: 1H3-hIgG1-L6-hIL-2 (I92R) (protein)
heavy: EVQLVESGGGLVQPGRSLKLSCAVSGFTFSDYAMAWVRQAPKKGLEWVATISYDGSRTYYRDSVKGRFTISRDNAKITLYLQMDSLRSEDTATYYCARHGSGYFDYWGQGVMVTVSS[not shown - about 450 residues with a human IgG1 Fc and changes]
light: B1 light
As to B10, the Fold change from rhIL-2 (TF1 + IL-2Rβ), pSTAT5 titration in test [2] amounted to 31 fold. In test [1], this molecule displayed a Fold change from hIL-2 (NK-92) of 1 fold.

B11: 1H3-hIgG1-L6-hIL-2 (D20A/Y45W) (protein)
heavy: EVQLVESGGGLVQPGRSLKLSCAVSGFTFSDYAMAWVRQAPKKGLEWVATISYDGSRTYYRDSVKGRFTISRDNAKITLYLQMDSLRSEDTATYYCARHGSGYFDYWGQGVMVTVSS[not shown - about 450 residues with a human IgG1 Fc and changes]
light: B1 light
B11: the Fold change from hIL-2 (TF1 + IL-2Rβ), pSTAT5 fixed conc. in test [2] was 3 fold. In test [3], the Fold change from hIL-2 (NK-92), pSTAT5 fixed conc. amounted to 19 fold.

B12: 1H3-hIgG1-L6-hIL-2 (D20A/E61M) (protein)
heavy: EVQLVESGGGLVQPGRSLKLSCAVSGFTFSDYAMAWVRQAPKKGLEWVATISYDGSRTYYRDSVKGRFTISRDNAKITLYLQMDSLRSEDTATYYCARHGSGYFDYWGQGVMVTVSS[not shown - about 450 residues with a human IgG1 Fc and changes]
light: B1 light
Consider B12, for which the Fold change from hIL-2 (TF1 + IL-2Rβ), pSTAT5 fixed conc. in test [2] is 2 fold. For the same molecule, the Fold change from hIL-2 (NK-92), pSTAT5 fixed conc. in test [3] was 15 fold.

B13: 1H3-hIgG1-L6-hIL-2 (D20A/E61S) (protein)
heavy: EVQLVESGGGLVQPGRSLKLSCAVSGFTFSDYAMAWVRQAPKKGLEWVATISYDGSRTYYRDSVKGRFTISRDNAKITLYLQMDSLRSEDTATYYCARHGSGYFDYWGQGVMVTVSS[not shown - about 450 residues with a human IgG1 Fc and changes]
light: B1 light
In the case of B13, the Fold change from hIL-2 (TF1 + IL-2Rβ), pSTAT5 fixed conc. in test [2] came out at 1 fold. Moreover, the Fold change from hIL-2 (NK-92), pSTAT5 fixed conc. in test [3] was determined as 16 fold.

B14: 1H3-hIgG1-L6-hIL-2 (I92D/F42G) (protein)
heavy: EVQLVESGGGLVQPGRSLKLSCAVSGFTFSDYAMAWVRQAPKKGLEWVATISYDGSRTYYRDSVKGRFTISRDNAKITLYLQMDSLRSEDTATYYCARHGSGYFDYWGQGVMVTVSS[not shown - about 450 residues with a human IgG1 Fc and changes]
light: B1 light
For B14, the Fold change from hIL-2 (TF1 + IL-2Rβ), pSTAT5 fixed conc. in test [2] turned out to be 5 fold. The molecule further yielded a Fold change from hIL-2 (NK-92), pSTAT5 fixed conc. in test [3] of 32 fold.

B15: 1H3-hIgG1-L6-hIL-2 (D20A/E61W) (protein)
heavy: EVQLVESGGGLVQPGRSLKLSCAVSGFTFSDYAMAWVRQAPKKGLEWVATISYDGSRTYYRDSVKGRFTISRDNAKITLYLQMDSLRSEDTATYYCARHGSGYFDYWGQGVMVTVSS[not shown - about 450 residues with a human IgG1 Fc and changes]
light: B1 light
Turning to B15, the Fold change from hIL-2 (TF1 + IL-2Rβ), pSTAT5 fixed conc. in test [2] was determined as 2 fold. In test [3], this molecule came in with a Fold change from hIL-2 (NK-92), pSTAT5 fixed conc. of 15 fold.

B16: 1H3-hIgG1-L6-hIL-2 (D20A/E61H) (protein)
heavy: EVQLVESGGGLVQPGRSLKLSCAVSGFTFSDYAMAWVRQAPKKGLEWVATISYDGSRTYYRDSVKGRFTISRDNAKITLYLQMDSLRSEDTATYYCARHGSGYFDYWGQGVMVTVSS[not shown - about 450 residues with a human IgG1 Fc and changes]
light: B1 light
Regarding B16, the Fold change from hIL-2 (TF1 + IL-2Rβ), pSTAT5 fixed conc. in test [2] is 2 fold. Further, in test [3], the Fold change from hIL-2 (NK-92), pSTAT5 fixed conc. was determined as 15 fold.
